The values below come from paper PMC4336329 (PLoS ONE, 2015).

In all, about 310,000 compounds went through this assay and about 2,200 (0.71%) showed an effect of 50% or more. Effects have a minus sign here. This is one part of the list.

human ether-à-go-go-related gene (hERG) potassium channel, sequence (Q12809 whole entry, looked up): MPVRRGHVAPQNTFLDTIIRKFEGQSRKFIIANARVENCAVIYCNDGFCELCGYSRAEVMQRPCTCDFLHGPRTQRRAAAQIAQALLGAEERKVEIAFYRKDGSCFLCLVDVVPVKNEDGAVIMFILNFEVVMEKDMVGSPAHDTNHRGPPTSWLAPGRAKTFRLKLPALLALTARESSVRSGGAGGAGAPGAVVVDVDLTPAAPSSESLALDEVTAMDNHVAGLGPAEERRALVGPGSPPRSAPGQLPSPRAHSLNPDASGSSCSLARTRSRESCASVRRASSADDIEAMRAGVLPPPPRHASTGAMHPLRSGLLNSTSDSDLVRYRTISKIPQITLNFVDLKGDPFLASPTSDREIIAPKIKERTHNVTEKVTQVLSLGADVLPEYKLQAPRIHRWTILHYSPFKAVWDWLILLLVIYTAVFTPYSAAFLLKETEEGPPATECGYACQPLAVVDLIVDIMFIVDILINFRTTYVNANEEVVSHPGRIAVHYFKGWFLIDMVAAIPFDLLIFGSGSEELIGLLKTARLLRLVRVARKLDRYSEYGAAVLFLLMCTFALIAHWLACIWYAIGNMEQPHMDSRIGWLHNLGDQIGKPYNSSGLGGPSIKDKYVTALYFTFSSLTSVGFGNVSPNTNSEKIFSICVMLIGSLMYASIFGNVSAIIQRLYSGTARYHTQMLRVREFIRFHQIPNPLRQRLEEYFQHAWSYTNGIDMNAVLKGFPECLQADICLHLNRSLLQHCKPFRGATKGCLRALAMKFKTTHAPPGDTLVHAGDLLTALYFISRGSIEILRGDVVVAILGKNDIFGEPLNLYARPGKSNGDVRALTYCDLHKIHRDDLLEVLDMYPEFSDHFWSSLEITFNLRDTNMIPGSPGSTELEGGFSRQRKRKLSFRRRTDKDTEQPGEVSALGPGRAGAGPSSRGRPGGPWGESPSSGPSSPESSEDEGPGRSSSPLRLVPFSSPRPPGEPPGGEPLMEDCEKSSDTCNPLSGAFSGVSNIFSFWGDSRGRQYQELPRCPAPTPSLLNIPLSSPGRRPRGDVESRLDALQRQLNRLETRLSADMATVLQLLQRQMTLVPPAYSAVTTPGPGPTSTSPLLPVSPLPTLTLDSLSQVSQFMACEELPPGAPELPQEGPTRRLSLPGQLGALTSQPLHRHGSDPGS

This test addresses human ether-à-go-go-related gene (hERG) potassium channel (human, UniProt Q12809). Description: primary screen, population patch clamp on CHO cells stably expressing hERG.
Take `CC1(C)CC(=O)C2=C(C1)OC(N)=C(C#N)C2c1ccccc1[N+](=O)[O-]` (stereo not shown): the “hERG current change (%, negative = inhibition) at 1uM” value is -12.5%.

For the compound `O=C(c1cccc2ccccc12)C1CCCN(Cc2ccon2)C1` (stereo not shown), the “hERG current change (%, negative = inhibition) at 1uM” value is reported as 2.29%.

As to `CCCCNC(=O)c1onc(CSc2ccc(C)c(C)c2)c1C(=O)O`, the “hERG current change (%, negative = inhibition) at 1uM” value came out at 16.8%.

Regarding `COc1cccc(/C=C/C(=O)OCC(=O)c2ccc(S(=O)(=O)N3CCCCC3)cc2)c1OC`, the “hERG current change (%, negative = inhibition) at 1uM” value is recorded as 12.6%.

Regarding `CCC(C)(C)NC(=O)C(c1ccco1)N(C(=O)Cn1nnc2ccccc21)c1ccc2c(c1)OCO2` (stereo not shown), the “hERG current change (%, negative = inhibition) at 1uM” value was determined as 13.9%.

In the case of `O=S(=O)(c1cccc2nonc12)N1CCCCC1`, the “hERG current change (%, negative = inhibition) at 1uM” value is given as 14.1%.

With `Cl.NC(Cc1nc2ccccc2[nH]1)c1ccc(Cl)cc1` (stereo not shown), the “hERG current change (%, negative = inhibition) at 1uM” value was -0.346%.

For `CCNc1cc(Cl)nc(SC)n1`, the “hERG current change (%, negative = inhibition) at 1uM” value is given as -3.26%.

In the case of `Cc1ccc(S(=O)(=O)NC2=NCN(CCOC(=O)c3ccccc3)CN2)cc1`, the “hERG current change (%, negative = inhibition) at 1uM” value was found to be 1.5%.

Regarding `O=C(CCCNc1ccccc1)N/N=C/c1cccs1`, the “hERG current change (%, negative = inhibition) at 1uM” value was 14%.

Consider `CC1(C(=O)NC2CCCC2)CCC(=O)N1CCC1=CCCCC1` (stereo not shown), for which the “hERG current change (%, negative = inhibition) at 1uM” value was 10.3%.

Take `Cc1c(CCC(=O)NCCCn2ccnc2)c(=O)oc2c(C)c3occ(C(C)(C)C)c3cc12`: the “hERG current change (%, negative = inhibition) at 1uM” value was -24.7%.

Take `COc1ccc(CC(=O)NC(C)(C)C)cc1S(=O)(=O)N1CCOCC1`: the “hERG current change (%, negative = inhibition) at 1uM” value turned out to be 14.8%.

For `O=C(CSc1cn[nH]n1)Nc1ccccc1C(=O)O`, the “hERG current change (%, negative = inhibition) at 1uM” value was 11.5%.

In the case of `COc1ccc(OC)c(CC(NC(C)=O)C(=O)NC2CCN(c3nc(OC)nc(OC)n3)CC2)c1` (stereo not shown), the “hERG current change (%, negative = inhibition) at 1uM” value was 25%.

With `COc1cc2c3nnc(-c4ccc(F)cc4)c-3cn(Cc3cccc(C)c3)c2cc1OC`, the “hERG current change (%, negative = inhibition) at 1uM” value is given as 9.33%.

Consider `Cc1ccc(OCC(=O)NCc2ccco2)c([N+](=O)[O-])n1`, for which the “hERG current change (%, negative = inhibition) at 1uM” value was -20.3%.

Take `CCCS(=O)(=O)N1CCC(C(=O)NCc2cccnc2)CC1`: the “hERG current change (%, negative = inhibition) at 1uM” value was determined as 12.2%.

`Cc1cccnc1NC(=O)Cn1nc([N+](=O)[O-])cc1C`: the “hERG current change (%, negative = inhibition) at 1uM” value was found to be 4.82%.

On to `Cc1c(NC2=NC3(CCCCC3)Cc3ccccc32)c(=O)n(-c2ccccc2)n1C`, for which the “hERG current change (%, negative = inhibition) at 1uM” value is recorded as -8.67%.

On to `Cc1cnc(C(=O)Nc2ccc(S(=O)(=O)NCC(C)C)cc2)cn1`, for which the “hERG current change (%, negative = inhibition) at 1uM” value is given as 26.8%.

Consider `COc1cc2c(cc1OC)C(C(=O)NCCN(C)C)C(c1cccs1)N(C)C2=O` (stereo not shown), for which the “hERG current change (%, negative = inhibition) at 1uM” value is 3.56%.

In the case of `CN(CC(=O)Nc1ccccc1Cl)C(=O)CSc1nnc(-c2ccco2)o1`, the “hERG current change (%, negative = inhibition) at 1uM” value worked out at 7.49%.

In the case of `CC(=O)N(CCOc1ccccc1)CCOc1ccccc1`, the “hERG current change (%, negative = inhibition) at 1uM” value was determined as 9.29%.

On to `Cc1nc2nc(C)c(NS(=O)(=O)c3ccc(C4CCCCC4)cc3)c(=O)n2[nH]1`, for which the “hERG current change (%, negative = inhibition) at 1uM” value turned out to be 12.9%.
